Measured values reported in publication PMC12820563.
The list shows a part of the results. The list includes weakly bound sequences.

molecular target: T1, MBP-FoxP3dN (UniProt Q99JB6); test: PD-seq (MBP pull-down with sequencing); settings: 20 mM Tris-HCl pH 7.5, 100 mM NaCl, 1.5 mM MgCl2, 0.4 uM protein, 0.1 uM dsDNA library, 30 min, room temperature, amylose pull-down; high values mean tight binding; double strand, one strand shown
T1 sequence: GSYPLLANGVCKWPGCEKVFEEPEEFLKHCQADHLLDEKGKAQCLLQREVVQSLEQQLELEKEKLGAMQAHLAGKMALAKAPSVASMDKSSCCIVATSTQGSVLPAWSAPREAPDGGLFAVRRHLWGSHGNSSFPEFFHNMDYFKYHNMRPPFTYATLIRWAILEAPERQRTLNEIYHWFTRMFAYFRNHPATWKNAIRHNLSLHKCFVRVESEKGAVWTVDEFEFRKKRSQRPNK

Sequence	binding signal (RPM ratio (pull-down/input))
GATGATTGTTCTCCCAGCTGATGAATTCGACCGGTCGAGTAAACAAATTTTCCTAATCTTTCTGTTCAAGCGCCATCTAC	0.207
GATGATTGTTCTCCCAGCTGATGAATTTTAGGGGTCGAGTAAACAAATTTTCCTAATCTTTCTGTTCAAGCGCCATCTAC	0.306
GATGATTGTTCTCCCAGCTGATGAATTTCCGTGCTCGAGTAAACAAATTTTCCTAATCTTTCTGTTCAAGCGCCATCTAC	0.332
GATGATTGTTCTCCCAGCTGATGAATTCACCTTTTCGAGTAAACAAATTTTCCTAATCTTTCTGTTCAAGCGCCATCTAC	0.312
GATGATTGTTCTCCCAGCTGATGAATTGGTACCGTCGAGTAAACAAATTTTCCTAATCTTTCTGTTCAAGCGCCATCTAC	0.466
GATGATTGTTCTCCCAGCTGATGAATTGTCTAAGTCGAGTAAACAAATTTTCCTAATCTTTCTGTTCAAGCGCCATCTAC	0.302
GATGATTGTTCTCCCAGCTGATGAATTTTAAGTGTCGAGTAAACAAATTTTCCTAATCTTTCTGTTCAAGCGCCATCTAC	0.523
GATGATTGTTCTCCCAGCTGATGAATTCGGCAAATCGAGTAAACAAATTTTCCTAATCTTTCTGTTCAAGCGCCATCTAC	0.528
GATGATTGTTCTCCCAGCTGATGAATTCTGACTATCGAGTAAACAAATTTTCCTAATCTTTCTGTTCAAGCGCCATCTAC	0.567
GATGATTGTTCTCCCAGCTGATGAATTATCACCATCGAGTAAACAAATTTTCCTAATCTTTCTGTTCAAGCGCCATCTAC	0.464
GATGATTGTTCTCCCAGCTGATGAATTCATGAGTTCGAGTAAACAAATTTTCCTAATCTTTCTGTTCAAGCGCCATCTAC	0.957
GATGATTGTTCTCCCAGCTGATGAATTCAGCCGCTCGAGTAAACAAATTTTCCTAATCTTTCTGTTCAAGCGCCATCTAC	1.04
GATGATTGTTCTCCCAGCTGATGAATTCAAGCCATCGAGTAAACAAATTTTCCTAATCTTTCTGTTCAAGCGCCATCTAC	1.14
GATGATTGTTCTCCCAGCTGATGAATTCACCCATTCGAGTAAACAAATTTTCCTAATCTTTCTGTTCAAGCGCCATCTAC	0.317
GATGATTGTTCTCCCAGCTGATGAATTGAAAGACTCGAGTAAACAAATTTTCCTAATCTTTCTGTTCAAGCGCCATCTAC	0.219
GATGATTGTTCTCCCAGCTGATGAATTGTCAGGTTCGAGTAAACAAATTTTCCTAATCTTTCTGTTCAAGCGCCATCTAC	0.338

Sequence	binding signal (RPM ratio (pull-down/input))
GATGATTGTTCTCCCAGCTGATGAATTCAGACTCTCGAGTAAACAAATTTTCCTAATCTTTCTGTTCAAGCGCCATCTAC	1.33
GATGATTGTTCTCCCAGCTGATGAATTTCGTCACTCGAGTAAACAAATTTTCCTAATCTTTCTGTTCAAGCGCCATCTAC	1.6
GATGATTGTTCTCCCAGCTGATGAATTAGTCGTATCGAGTAAACAAATTTTCCTAATCTTTCTGTTCAAGCGCCATCTAC	1.35
GATGATTGTTCTCCCAGCTGATGAATTCAAGCTATCGAGTAAACAAATTTTCCTAATCTTTCTGTTCAAGCGCCATCTAC	0.713
GATGATTGTTCTCCCAGCTGATGAATTATTAGCTTCGAGTAAACAAATTTTCCTAATCTTTCTGTTCAAGCGCCATCTAC	0.671
GATGATTGTTCTCCCAGCTGATGAATTGAAAGAGTCGAGTAAACAAATTTTCCTAATCTTTCTGTTCAAGCGCCATCTAC	0.192
GATGATTGTTCTCCCAGCTGATGAATTAAGAAGCTCGAGTAAACAAATTTTCCTAATCTTTCTGTTCAAGCGCCATCTAC	0.24
GATGATTGTTCTCCCAGCTGATGAATTTGATGTCTCGAGTAAACAAATTTTCCTAATCTTTCTGTTCAAGCGCCATCTAC	5.34
GATGATTGTTCTCCCAGCTGATGAATTGAATTACTCGAGTAAACAAATTTTCCTAATCTTTCTGTTCAAGCGCCATCTAC	1.28
GATGATTGTTCTCCCAGCTGATGAATTCATTTTCTCGAGTAAACAAATTTTCCTAATCTTTCTGTTCAAGCGCCATCTAC	1.42
GATGATTGTTCTCCCAGCTGATGAATTCCTCAGGTCGAGTAAACAAATTTTCCTAATCTTTCTGTTCAAGCGCCATCTAC	0.177
GATGATTGTTCTCCCAGCTGATGAATTTACATGATCGAGTAAACAAATTTTCCTAATCTTTCTGTTCAAGCGCCATCTAC	0.589
GATGATTGTTCTCCCAGCTGATGAATTGGATTATTCGAGTAAACAAATTTTCCTAATCTTTCTGTTCAAGCGCCATCTAC	1.35
GATGATTGTTCTCCCAGCTGATGAATTTACCGTTTCGAGTAAACAAATTTTCCTAATCTTTCTGTTCAAGCGCCATCTAC	0.609
GATGATTGTTCTCCCAGCTGATGAATTTCATTAGTCGAGTAAACAAATTTTCCTAATCTTTCTGTTCAAGCGCCATCTAC	0.798
